Assay results as given in PMC6801822, “The Bactericidal Activity of Temporin Analogues Against Methicillin Resistant Staphylococcus aureus” (International Journal of Molecular Sciences, 2019).
≈ marks a conversion by molar mass, not a printed value. Non-standard residues stand in square brackets, D forms with d. Residues, ends and D or L forms follow the SMILES beside them. AEEA = NCCOCCOCC(=O)O

System: MRSA clinical isolate 52B
Test: microbe, parasite or virus in culture
Conditions: 24 h
Protocol: Antimicrobial activity of peptides was analyzed through determination of MIC parameter according to the standard microdilution technique performed on 96-well plates. Mueller-Hinton broth (MHB, Sigma Aldrich, St. Louis, MO, USA) was used as the working medium for all bacterial strains. Briefly, inoculum was prepared from freshly grown cultures of bacteria being at their exponential phase of growth. Each well of 96-well plates containing 100 µL of serially diluted peptides in PBS at desired concentration was inoculated with 100 µL of 10^5 CFU/mL of bacterial suspension. Then plates were incubated overnight 37 °C and absorbance was read at 600 nm after 24 h. Wells without peptide were treated as the positive control, while uninoculated MHB was defined as the negative control. All measurements were run in triplicates.

SMILES: CC(=O)NC[C@H]1CN(c2ccc(N3CCOCC3)c(F)c2)C(=O)O1 [Linezolid, linezolid]
- MIC (Staphylococcus aureus): 2 µg/mL (≈ 5.93 µM)

SMILES: CN[C@H](CC(C)C)C(=O)N[C@H]1C(=O)N[C@@H](CC(N)=O)C(=O)N[C@H]2C(=O)N[C@H]3C(=O)N[C@H](C(=O)N[C@H](C(=O)O)c4cc(O)cc(O)c4-c4cc3ccc4O)[C@H](O)c3ccc(c(Cl)c3)Oc3cc2cc(c3O[C@@H]2O[C@H](CO)[C@@H](O)[C@H](O)[C@H]2O[C@H]2C[C@](C)(N)[C@H](O)[C@H](C)O2)Oc2ccc(cc2Cl)[C@H]1O [Vancomycin, vancomycin]
- MIC (Staphylococcus aureus): 0.5 µg/mL (≈ 0.345 µM)

SMILES: CC[C@H](C)[C@H](NC(=O)COCCOCCNC(=O)[C@H](CCCNC(=N)N)NC(=O)[C@H](CC(C)C)NC(=O)[C@H](Cc1ccccc1)NC(=O)CNC(=O)[C@@H](C)NC(=O)[C@@H](N)Cc1ccc(O)cc1)C(=O)N[C@@H](CCCCN)C(=O)N[C@@H](CCCCN)C(=O)N[C@H](C(=O)N[C@@H](CC(C)C)C(=O)N[C@@H](CO)C(=O)N[C@H](CCCCN)C(=O)N[C@H](C(=O)N[C@@H](CCCCN)C(=O)N[C@@H](CCCCN)C(=O)N[C@@H](CC(C)C)C(=O)N[C@@H](CC(C)C)C(N)=O)[C@@H](C)CC)[C@@H](C)CC [DAL-PEG-DK5] (H-Y[dA]GFLR[AEEA]IKKILS[dK]IKKLL-NH2; N-terminus assumed)
- MIC (MRSA clinical isolate 52B (skin), broth microdilution, MHB): 40 µg/mL (≈ 17.6 µM)
